# Test results as given in paper PMC4336329 (PLoS ONE, 2015).
# The campaign covered roughly 310,000 compounds. About 14,000 (4.5%) showed an effect of 50% or more. Effects have a minus sign here. This is one part of the list.
# Target: human ether-à-go-go-related gene (hERG) potassium channel (human, UniProt Q12809)
# Assay: primary screen, population patch clamp on CHO cells stably expressing hERG
# 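Further: peak tail current of the secondary pulse compared with the same well before compound.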
# Chain of human ether-à-go-go-related gene (hERG) potassium channel (Q12809 whole entry, looked up): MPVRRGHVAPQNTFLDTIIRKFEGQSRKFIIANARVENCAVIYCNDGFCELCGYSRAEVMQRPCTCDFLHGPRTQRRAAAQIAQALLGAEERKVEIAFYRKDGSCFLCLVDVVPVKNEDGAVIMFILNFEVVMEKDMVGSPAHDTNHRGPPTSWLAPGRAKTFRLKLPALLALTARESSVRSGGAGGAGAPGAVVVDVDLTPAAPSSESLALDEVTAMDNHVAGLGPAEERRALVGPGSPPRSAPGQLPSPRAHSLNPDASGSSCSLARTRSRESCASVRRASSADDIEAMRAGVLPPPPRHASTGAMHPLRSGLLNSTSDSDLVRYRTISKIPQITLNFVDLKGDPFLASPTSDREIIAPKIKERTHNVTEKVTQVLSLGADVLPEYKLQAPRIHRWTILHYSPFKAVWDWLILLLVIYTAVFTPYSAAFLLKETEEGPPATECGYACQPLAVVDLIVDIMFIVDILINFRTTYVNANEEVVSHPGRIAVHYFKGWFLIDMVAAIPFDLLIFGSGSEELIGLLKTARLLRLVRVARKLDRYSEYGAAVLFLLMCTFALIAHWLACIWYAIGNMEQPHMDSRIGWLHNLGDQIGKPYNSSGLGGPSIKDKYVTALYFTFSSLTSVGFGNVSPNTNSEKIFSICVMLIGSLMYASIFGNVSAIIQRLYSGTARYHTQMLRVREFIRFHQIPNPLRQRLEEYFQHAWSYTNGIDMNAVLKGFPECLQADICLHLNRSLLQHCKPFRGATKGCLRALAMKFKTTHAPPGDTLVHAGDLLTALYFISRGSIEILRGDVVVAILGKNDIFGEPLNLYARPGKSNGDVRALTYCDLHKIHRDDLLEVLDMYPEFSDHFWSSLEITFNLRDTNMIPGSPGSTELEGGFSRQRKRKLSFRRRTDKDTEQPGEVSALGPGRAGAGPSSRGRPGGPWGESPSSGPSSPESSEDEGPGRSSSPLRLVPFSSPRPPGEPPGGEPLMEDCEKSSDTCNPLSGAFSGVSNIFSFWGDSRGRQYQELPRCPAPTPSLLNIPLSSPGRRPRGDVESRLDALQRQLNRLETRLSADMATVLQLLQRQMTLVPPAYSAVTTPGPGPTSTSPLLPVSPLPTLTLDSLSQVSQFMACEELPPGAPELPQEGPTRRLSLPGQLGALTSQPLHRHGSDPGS
row,SMILES,"hERG current change (%, negative = inhibition) at 10uM [%]"
1,CCOC(=O)c1c(C)c(C(=O)N2CCCCCC2)c(C)n1CC,9.15
2,CC1(C)CC(=O)C(C=NCCc2ccccn2)=C(O)C1,8.58
3,CCCCCn1c(=O)[nH]c2cc(C(=O)NCCN(CC)CC)ccc2c1=O,-19.9
4,CCCC(=O)Nc1nnc(SCC(=O)Nc2ccc3c(c2)OCO3)s1,3.08
5,C/C(=N\NC(=S)Nc1cc(S(=O)(=O)N2CCOCC2)ccc1Cl)c1ccc(N2CCOCC2)cc1,6.22
6,CC(=O)N1CCc2cc(C(=O)CN3CCCN(Cc4ccc(F)cc4)C3)ccc21,1.87
7,CCN1C(=O)[C@H]2[C@@H](c3ccc(SC4CCCCC4)c(OC)c3)N3CCCC[C@@]3(C(=O)OC)[C@H]2C1=O.O=C(O)C(F)(F)F,13
8,Cc1ccc(S(=O)(=O)N2CCC(C(=O)OCc3c(C)noc3C)CC2)cc1C,-15.8
9,O=C(Nc1ccc2c(c1)OCO2)C(c1ccccc1)N1CCC2(CC1)OCCO2 (stereo not drawn),-0.953
10,CC(C)(C)NC(=O)CN(C(=O)c1csnn1)c1cccc2c1CCCC2,-3.36
11,COCCNC(=O)c1ccccc1NC(=O)C1COc2ccccc2O1 (stereo not drawn),-1.17
12,Cc1nc(C)c(C(=O)N(c2ccc(C)c(C)c2)C(C(=O)NCc2ccco2)c2ccccc2)s1 (stereo not drawn),-13.4
13,Cc1cc(C)c2c(CCl)cc(=O)oc2c1,-1.06
14,CCCCCCCCC(=O)NNC(=O)c1c(O)c2ccccc2n(CCC)c1=O,19.1
15,CCc1ccc(/C=C2/SC(=S)N(CC(=O)Nc3nc4ccccc4s3)C2=O)cc1,14.4
16,CCc1ccc(NC(=O)CS(=O)CC(=O)Nc2ccc(-n3cnnn3)c(C)c2)cc1 (stereo not drawn),2.15
17,c1ccc(-c2nnc(CN3CCN(c4ccccc4)CC3)o2)cc1,-8.8
18,COc1ccc(C(=O)c2ccc(CC#N)s2)cc1,14.2
19,CCOc1ccc2[nH]c(=O)c(CN(CCCO)C(C)=O)cc2c1,3.62
20,CCOC(=O)Cn1cncc1-c1ccc([N+](=O)[O-])cc1,3.34
21,COc1ccc(C2(O)CCN(CC(=O)Nc3nccs3)CC2)c(OC)c1,-40.1
22,C/C(=N/NC(=O)c1cc(Cl)ccc1O)C12CC3CC(CC(C3)C1)C2,5.8

row,SMILES,"hERG current change (%, negative = inhibition) at 10uM [%]"
1,CNc1nc2[nH]c(=O)c3c(c2s1)OC(N)=C(C#N)C3c1cccc(F)c1 (stereo not drawn),11.1
2,COc1cccc(-c2cc3c(-n4cccc4)ncnc3o2)c1,4.32
3,COC(=O)c1ccccc1S(=O)(=O)N1CCC(c2nc3ccccc3o2)CC1,-29.1
4,O=C(CSc1nc2ccc(Cl)cc2[nH]1)NCCc1ccc(Cl)cc1,-2.88
5,Cc1ccc(NC(=O)C(=O)NCCCN2CCOCC2)c(C)c1,-8.87
6,CCOC(=O)C(C)Oc1ccc2c(CC)cc(=O)oc2c1C (stereo not drawn),-12.6
7,O=C(NCCc1cccnc1)c1cc(COc2ccc(F)cc2Cl)on1,-7.87
8,CCc1cc(=O)oc2cc(OCC(=O)NCCCN3CCOCC3)c(Cl)cc12,4.59
9,Cc1ccnn1C(C)C(=O)O (stereo not drawn),26.3
10,Cc1cc(C)cc(N(C(=O)CNC(=O)c2ccco2)C(C(=O)NC2CCCC2)c2cccnc2)c1 (stereo not drawn),-6.29
11,O=C(CN1CCN(c2ccc(O)cc2)CC1)Nc1ccc(SC(F)F)cc1,-74.7
12,CCN(CC)C(=O)CCc1nnc(CCc2c[nH]c3ccccc23)o1,6.93
13,COc1ccc(S(=O)(=O)N(C)c2ccc(C(=O)NCc3ccco3)cc2)cc1,-11.9
14,CCOC(=O)Cc1ncccc1C(=O)Nc1ccc(Oc2ccccc2)cc1,5.86
15,Cc1ccc(C(=O)Oc2csc(=S)n2C(=O)c2ccc(C)cc2)cc1,19
16,O=C1CS/C(=N\N=C\c2ccco2)N1c1ccccc1,9.29
17,Nc1nc(-c2ccc3c(c2)CCO3)cs1,11.4
18,CSCCC(/C(O)=C(\C#N)c1nc2ccccc2[nH]1)N1C(=O)c2ccccc2C1=O (stereo not drawn),-10.1
19,COc1cc2c(C(=O)NC3CCCCCC3)cn(C)c(=O)c2cc1OC,8.02
20,O=C1c2ccccc2C(O)N1Cc1cccs1 (stereo not drawn),7.7
21,O=S(=O)(NCCSc1nnc(-c2ccco2)n1-c1ccccc1)c1ccccc1,-25.5
22,COc1ccc(C(=O)Nc2cc(C(=O)O)cc(C(=O)O)c2)cc1Cl,19.5

row,SMILES,"hERG current change (%, negative = inhibition) at 10uM [%]"
1,O=C(CSc1nc2ccccc2c(=O)[nH]1)Nc1ccc(Br)cc1,9.32
2,Cc1[nH]c2ccc(OC(=O)N3CCOCC3)cc2c1C(=O)OC(C)C,-13
3,CC(=O)Nc1ccc(NC(=O)Nc2ccc3c(c2)N(C)C(=O)CS3)cc1,18
4,COC(=O)CSc1n[nH]c(-c2ccncc2)n1,16.6
5,OCC#Cc1cnc2ccccc2c1,3.98
6,Cc1cccc(C)c1NC(=O)CNC(=O)c1ccc2c(c1)OCCO2,14.7
7,O=C(O)c1ncc(Cl)c(Cl)c1Cl,2.37
8,O=C1CC(Sc2ncccn2)C(=O)N1c1ccccc1 (stereo not drawn),1.03
9,CCOc1ccc(OCC)c(NC(=O)CN2CCN(c3cc(C)ccc3C)CC2)c1.Cl,-9.35
10,COc1ccc(N2CC(C(=O)OCC(=O)Nc3cccc(C)c3)CC2=O)cc1 (stereo not drawn),-30.9
11,CCc1ccc(C(=O)COC(=O)C(Cc2ccccc2)NC(=O)C2CCC(C)CC2)cc1 (stereo not drawn),0.334
12,Cc1ccc(OCCOC(=O)CCc2nc3ccccc3c(=O)[nH]2)cc1,4.32
13,COc1ccc(S(=O)(=O)N2CCCCC2)cc1NC(=O)Cc1cccs1,8.53
14,COc1ccccc1C(CNC(=O)c1ccc(S(=O)(=O)N2CCCCC2)cc1)N(C)C (stereo not drawn),-19.4
15,O=C(C[n+]1cc(-c2ccc(F)cc2)n2c1CCC2)Nc1nc(-c2ccc(F)cc2)cs1.[Cl-],-76.7
16,O=C(NCC1(N2CCCCC2)CCCCC1)c1ccc(NS(=O)(=O)c2ccc(F)cc2)cc1,-42.9
17,CCc1noc(C)c1C(=O)Nc1nc2ccc(OC)cc2s1,-10.3
18,O=C1c2ccc(-c3ccc4c(c3)C(=O)N(CCO)C4=O)cc2C(=O)N1CCO,14.6
19,N/C(=N\c1nc2ccccc2o1)NC(=O)c1ccc(F)cc1,-17.5
20,CCOC(=O)c1cc(-c2ccc(F)cc2)n(CC(=O)Nc2nccs2)c1C,1.55
21,COC(=O)CN1C(=O)[C@H]2[C@@H](C3CC3)N3C(=O)CN(Cc4ccc(-c5ccccc5)cc4)C(=O)[C@@]3(Cc3ccccc3)[C@H]2C1=O,-42.5
22,CC(OC(=O)CN1C(=O)C2CC=CCC2C1=O)C(=O)Nc1ccc(F)cc1Cl (stereo not drawn),-15.1

row,SMILES,"hERG current change (%, negative = inhibition) at 10uM [%]"
1,O=C(Cn1nnc2ccccc21)NNC(=O)c1ccccc1,19
2,Cc1ccc(-n2cc(CN3CCN(Cc4nccn4C)CC3)c(-c3cccc(C)c3)n2)cc1,-62.7
3,CN(CC(=O)Nc1cccc(C#N)c1)Cc1ccc(Cl)cc1,-34.1
4,CCOC(=O)C(C)n1cnc2scc(-c3ccc(C)c(C)c3)c2c1=O (stereo not drawn),10.7
5,CCn1c(CN2CCN(c3cccc(C)c3C)CC2)n[nH]c1=S,6.69
6,O=C(CC1C(=O)NCCN1Cc1c(F)cccc1Cl)NCCCn1cccn1 (stereo not drawn),10.8
7,COc1cccc(OC)c1OCC(C)CNCC1CCCO1.Cl (stereo not drawn),-8.61
8,O=C(NC1CCCCC1)c1cc(C(=O)c2ccccc2Br)c[nH]1,22.7
9,CC(=O)Nc1ccc(C(=O)NNC(=O)CCCCC(=O)NNC(=O)c2ccc(NC(C)=O)cc2)cc1,-2.82
10,O=C(NC1CCCCC1)N1CCN(c2ccc([N+](=O)[O-])cc2)CC1,-92.4
11,Cc1cccc(Oc2ccccc2NS(=O)(=O)c2ccc(CCC(=O)O)cc2)c1,-39.8
12,CCOC(=O)C1=C(O)/C(=C/c2ccc(OCC(=O)O)c(OCC)c2)SC1=Nc1ccc(C)cc1,24.8
13,O=C(Cc1cccs1)Nc1ccccc1C(=O)O,-1.79
14,CCCN(Cc1cc2cc(OC)ccc2[nH]c1=O)C(=O)c1ccncc1,-17
15,CNC(C)C#Cc1ccc2c(=O)c3c(OC)cccc3oc2c1 (stereo not drawn),0.579
16,O=C(NCCNS(=O)(=O)c1cccc(C(F)(F)F)c1)c1cc(OCC(F)(F)F)ccc1OCC(F)(F)F,18
17,CN1CCN(NC(=O)c2ccc(F)cc2)CC1,23.1
18,O=CN1CCN(C(=O)c2ccc(-c3nc4ccccc4s3)s2)CC1,-34.2
19,Cl.OCCCNCc1ccc(Cl)cc1Cl,-13.3
20,Cc1ccc(C(=O)/C=C/Nc2ccc([N+](=O)[O-])cc2Br)cc1,-3.83
21,COc1ccc(C2CC(=O)OC3=C2C(=O)CC(C)(C)C3)c(OC)c1 (stereo not drawn),-1.81
